{"source": "PubChem BioAssay AID686979", "about": "(National Center for Advancing Translational Sciences (NCATS), 2013)", "note": "Screen size: about 420,000 compounds; about 50,000 (12%) were called active. The shares of active, inactive and inconclusive entries below differ from those in the screen. Calls come from the whole dose curve; as a rule, active = well fitted inhibition curve with a large enough effect; inconclusive = small, poorly fitted or top-dose-only effect; inactive = flat fitted curve, though single readings scatter. Potencies of inconclusive entries are left out as doubtful fits. % is set by controls: 0 for no effect and ±100 for the full control effect; potency is the fitted concentration of half-maximal effect; tags give direction and shape of the fitted curve.", "data": [{"test": "qHTS for Inhibitors of human tyrosyl-DNA phosphodiesterase 1 (TDP1): qHTS in cells in presence of CPT; note: nearly all actives have a fitted effect of over 55% in size", "conditions": "chicken DT40 Tdp1-/-;hTDP1 cells + 20 nM CPT, ATP luminescence, 48 h; activity change, negative = growth inhibition: at 46.2 µM (top of the series) unless noted", "method_in_brief": "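Cell growth measured by CellTiter-Glo luminescence after a minimum 48 h, 37 C compound exposure with 20 nM CPT in Tdp1-knockout DT40 cells stably expressing hTDP1, seeded 400/well; qHTS titration format.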", "values": [{"smiles": "C/C(=N/NC(=O)CNC(=O)COc1ccccc1)c1ccc(Cl)cc1", "Potency": "inactive"}, {"smiles": "CCn1c(COc2ccc(OC)cc2)nnc1SCC(=O)Nc1cc(OC)ccc1OC", "Potency": "inconclusive [inhibitor, single point]"}, {"smiles": "N#Cc1c(N)nc(N)nc1Nc1ccc(Br)cc1", "Potency": "inconclusive [inhibitor, single point]"}, {"smiles": "Cn1c(NCCO)nc2c1c(=O)n(Cc1cccc(F)c1)c(=O)n2C", "Potency": "inactive"}, {"smiles": "COC(=O)CSC1=C(C#N)C(c2ccc(C(C)C)cc2)CC(=O)N1", "note": "(stereo not drawn)", "Potency": "inconclusive [inhibitor, single point]"}, {"smiles": "COc1ccc(C(=O)N2CCC(C(=O)O)CC2)cc1", "Potency": "inactive"}, {"smiles": "Cc1nc2ccc(NC(=O)c3cccc(S(=O)(=O)N4CCOCC4)c3)cc2s1", "Potency": "inconclusive [inhibitor, single point]"}, {"smiles": "Cc1ccc(NS(=O)(=O)c2ccc(OCC(=O)NCC3CCCO3)cc2)cc1", "note": "(stereo not drawn)", "Potency": "inconclusive [inhibitor, single point]"}, {"smiles": "Cc1ccc(OCC(=O)N2CCN(S(=O)(=O)c3ccc(Cl)s3)CC2)cc1C", "Potency": "inconclusive [inhibitor, single point]"}, {"smiles": "O=C(CSc1nc2nc(-c3cccs3)cc(C(F)(F)F)c2c(=O)[nH]1)NCc1ccco1", "Potency": "inconclusive [inhibitor, single point]"}, {"smiles": "CC(C)C[C@H]1CNC(=S)N1C[C@H]1CCCN1C[C@H](CC(C)C)N1C[C@H](Cc2ccc(O)cc2)N(CC2CCCCC2)C1=S", "Potency": "active: 10.3 µM"}, {"smiles": "CN(C)CCNC(=O)c1cccc2nc3c(ccc4ccccc43)nc12", "Potency": "active: 5.8 µM"}, {"smiles": "COc1ccc(OC)c(C2=NOC(C(=O)NCC3CCCO3)C2)c1", "note": "(stereo not drawn)", "activity change, negative = growth inhibition": "inconclusive: -35.6% [inhibitor]"}, {"smiles": "Cc1cc(=O)[nH]c(Nc2cccc(Br)c2)n1", "Potency": "inconclusive [inhibitor, single point]"}, {"smiles": "Cc1cc(C)n(-c2cccc(CN3CCC(CO)(Cc4ccccc4)CC3)c2)n1", "Potency": "inconclusive [inhibitor, single point]"}, {"smiles": "O=S(=O)(c1ccc(F)cc1)N1CC2CCCN2c2ccc(C(F)(F)F)cc21", "note": "(stereo not drawn)", "Potency": "inconclusive [inhibitor, single point]"}, {"smiles": "CCN1/C(=C/c2cccc[n+]2C)Sc2ccc(OC)cc21", "Potency": "active: 2.59 µM"}, {"smiles": "CCCCn1ccc(=O)c2c(C(F)(F)F)nccc21", "Potency": "inconclusive [inhibitor, partial curve]"}, {"smiles": "COc1ccc2c(c1)sc1ncc(C(=O)NCc3ccc(OC(C)C)cc3)c(=O)n12", "Potency": "inactive"}, {"smiles": "CCOc1ccc(CCNC(=O)c2cnc3c(-c4ccc(F)cc4)c(C)nn3c2C)cc1OCC", "Potency": "active: 16.4 µM"}, {"smiles": "O=C(CCCN1CCN(c2ccc(F)cc2)CC1)NC1c2ccccc2CSc2ccccc21", "note": "(stereo not drawn)", "Potency": "inconclusive [inhibitor, single point]"}, {"smiles": "c1ccc2cc(C3OCC4(CCCC4)CO3)ccc2c1", "Potency": "inconclusive [inhibitor, single point]"}, {"smiles": "CCOC(=O)N1CCN(S(=O)(=O)N2CCCC(C(=O)NC(C)c3ccccc3)C2)CC1", "note": "(stereo not drawn)", "Potency": "inactive"}, {"smiles": "CC(C)c1ccc(NC(=O)Nc2nc(C(N)C3CCCCC3)cs2)cc1", "note": "(stereo not drawn)", "Potency": "inconclusive [inhibitor, single point]"}, {"smiles": "C[C@H]1CCC(=O)N([C@H](CN=[N+]=[N-])Cc2ccccc2)CC1", "Potency": "inactive"}, {"smiles": "COc1cccc(CNc2nnnn2C)c1", "Potency": "inactive"}, {"smiles": "CCCOCCOC(=O)c1[nH]c2c(c1C)C(=O)CC(c1cc(OC)ccc1OC)C2", "note": "(stereo not drawn)", "Potency": "active: 5.17 µM"}, {"smiles": "COc1ccc(NC(=O)N(C)[C@H]2C[C@H]3c4[nH]c5ccccc5c4CCN3C(=O)[C@H]2CO)cc1", "Potency": "inactive"}, {"smiles": "O=C(Nc1ccc(Br)cc1Br)Nc1cccc2[nH]c([C@@H]3O[C@H](CO)[C@@H](O)[C@H](O)[C@H]3O)nc12", "Potency": "inactive"}, {"smiles": "Cc1c(Cl)cccc1Nc1nc(NCCO)c2ccccc2n1", "Potency": "inconclusive [inhibitor, single point]"}, {"smiles": "COc1cc2c(cc1O)C(CSC)Cc1cc3c(cc1N(C)CC2)OCO3", "note": "(stereo not drawn)", "Potency": "inconclusive [inhibitor, single point]"}, {"smiles": "CCOC(=O)C1=C(Cn2cnc3ccccc32)NC(=O)NC1c1cc(C)ccc1C", "note": "(stereo not drawn)", "Potency": "active: 25.9 µM"}, {"smiles": "N#C/C(C(N)=O)=c1/ccc2c(c1)N1C3=C(CCCC3)CC3CCCCC31N=2", "note": "(stereo not drawn)", "Potency": "active: 14.6 µM"}, {"smiles": "COC(=O)C1CCN(Cc2ccc3c(c2)CN(C(=O)c2sc(C)nc2C)CCO3)CC1", "activity change, negative = growth inhibition": "inactive: -8.47% [at 9.04 µM]"}, {"smiles": "Cc1cc(C)c(C(N)=O)c(Nc2ccc3c(c2)OCCO3)n1", "Potency": "inconclusive [inhibitor, full curve]"}, {"smiles": "Cc1cc(C)cc(OCc2nnc(SCC(=O)N3CCN(c4ccccc4)CC3)o2)c1", "Potency": "inconclusive [inhibitor, partial curve]"}, {"smiles": "COC(=O)c1sc(NC(=O)c2ccco2)c(C#N)c1C", "Potency": "inactive"}, {"smiles": "C[C@]1(C(=O)NCc2cc(F)cc(C(F)(F)F)c2)C=C[C@@H](Cc2ccccc2)N1C(=O)c1ccccc1", "Potency": "active: 16.4 µM"}, {"smiles": "O=C(CCn1cccc1)NCCc1ccc(Cl)cc1", "Potency": "inactive"}, {"smiles": "Clc1ccc(-c2noc(CN3CCN(c4ccccc4)CC3)n2)cc1", "Potency": "inactive"}, {"smiles": "CS(=O)(=O)N(CC(=O)Nc1cccc(Br)c1)Cc1ccccc1", "Potency": "inactive"}, {"smiles": "CCC(CC)c1nnc(NC(=O)c2cccc(S(=O)(=O)N3CCOCC3)c2)s1", "Potency": "inconclusive [inhibitor, single point]"}, {"smiles": "CCN(CC)CCNC(=O)c1ccc2c(c1)NC(=O)c1ccccc1S2", "Potency": "inconclusive [inhibitor, single point]"}, {"smiles": "OCC1(Cc2cccc(Cl)c2)CCCN(Cc2cnn(-c3ccccc3)c2)C1", "note": "(stereo not drawn)", "Potency": "inconclusive [inhibitor, single point]"}, {"smiles": "C/C(=N\\Nc1ccc(Cl)nn1)c1ccccc1O", "Potency": "active: 0.58 µM"}, {"smiles": "Cc1n[nH]c(C)c1CCNCc1ccc(OCC(O)CN2CCCCC2)cc1", "note": "(stereo not drawn)", "Potency": "inactive"}, {"smiles": "N#CC(C#N)=C1C=CC=CN1/C(=C\\c1ccccc1Cl)C(=O)c1ccccc1", "Potency": "active: 0.58 µM"}, {"smiles": "COc1ccc(OCCN2CCC(C(=O)NC(c3ccccc3)c3ccc4ccccc4n3)CC2)cc1", "note": "(stereo not drawn)", "Potency": "inconclusive [inhibitor, single point]"}]}]}
